Measurements published in PubChem BioAssay AID1347073 (National Center for Advancing Translational Sciences (NCATS), 2019).
Among all 45,000 compounds or so, about 200 (0.44%) were called active. Roughly 7% stayed inconclusive and do not appear here. Calls follow the shape of the dose curve; as a rule, active = well fitted activation curve with a large enough effect; inconclusive = small, poorly fitted or top-dose-only effect; inactive = no such curve, though single readings can be large or run the other way. The list shows a part of the results.

Assay: qHTS of TDP-43 Inhibitors: NCGC Sytravon Library Screen; also: 0% is about no effect; nearly all actives have a fitted effect of over 55% in size
Conditions: yeast TDP-43 toxicity rescue, BacTiter-Glo growth, 24 h; series mostly up to 46.1 µM; growth rescue (activation): at the top concentration
Outline: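 TDP-43-expressing yeast, pregrown in raffinose, seeded at OD600 0.02 in galactose medium with compound for 24 hr at 30 deg C. Growth read by BacTiter-Glo luminescence, so rescue of toxicity appears as activation.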

Row | SMILES | growth rescue (activation)
1 | COc1ccccc1-n1cnnc1SCC(=O)Nc1cc(C)on1 | inactive: -10%
2 | CC(=O)c1ccccc1NS(C)(=O)=O | inactive: -2.51%
3 | CC1(C(=O)NS(=O)(=O)c2ccccc2)CCN1C(=O)C1CCCCC1 (stereo not given) | inactive: 2.63%
4 | CCOc1ccc(C(C(=O)NC2CCCCC2)N(C(=O)Cc2cccs2)c2ccc(-n3cnnn3)c(OC)c2)cc1 (stereo not given) | inactive: 15.9%
5 | CCOC(=O)c1cn2ccc(C)cc2n1 | inactive: -7.79%
6 | COC(=O)C1=C(C(=O)c2ccc(C)cc2)C(c2ccccc2)n2nnnc2N1 (stereo not given) | inactive: -11.5%
7 | CCOC(=O)c1sc(NC(=O)C(C)Sc2nnc(N)s2)nc1C (stereo not given) | inactive: 9.72%
8 | COc1ccc(Cl)cc1C(=O)NNC(=O)COC(=O)c1ccc(Br)o1 | inactive: 2.62%
9 | COc1cccc(C(=O)NNC(=O)Cc2ccc([N+](=O)[O-])cc2)c1 | inactive: -1.86%
10 | COc1ccccc1/C=C1/C(=O)N(c2ccccc2)N=C1C | inactive: -13.3%
11 | Cc1cc(C)n2nc(C(=O)OCC(=O)c3ccccc3)nc2n1 | inactive: -70%
12 | CC(=O)Nc1ccc(-n2nnnc2SCC(=O)NC2CCCC2)cc1 | inactive: 0.74%
13 | COc1ccc(C(=O)N(CC2CCCO2)C(C(=O)NCCC(C)C)c2ccc(C)cc2)cc1OC (stereo not given) | inactive: 9.81%
14 | CC(=O)Nc1ccc(NC(=O)C(Sc2ccccc2)c2ccccc2)cc1 (stereo not given) | inactive: -2.58%
15 | O=C(CSc1nnc(-c2cccc(S(=O)(=O)N3CCCC3)c2)n1-c1ccccc1)Nc1ccc(C(=O)O)cc1 | inactive: 2.5%
16 | O=C(COC(=O)/C=C/c1ccc(Cl)cc1)NCCN1C(=O)CSC1=O | inactive: 4.55%
17 | CCOc1cc(/C=C2\SC(=Nc3ccc(CC)cc3)NC2=O)ccc1OCC(=O)O | inactive: 14.4%
18 | CCN(C(=O)CSc1nnc(Nc2ccccc2C)s1)C1CCS(=O)(=O)C1 (stereo not given) | inactive: -3%
19 | CC1CCCC(C)N1/N=C/c1ccccc1F (stereo not given) | inactive: -24.7%
20 | O=C(O)c1sc2cc(C(F)(F)F)cnc2c1-c1ccccn1 | inactive: -10.3%
21 | CCOCCCNc1ccc(N2C(=O)CCCC2=O)cc1[N+](=O)[O-] | inactive: -18.1%
22 | CCSc1nnc(NC(NC(C)=O)(C(F)(F)F)C(F)(F)F)s1 | inactive: -0.948%
23 | CCN(C(=O)c1cccc(S(=O)(=O)N(C)C)c1)C12CC3CC(CC(C3)C1)C2 | inactive: -15.6%
24 | O=[N+]([O-])c1cccc(/C=N/NC2CCS(=O)(=O)C2)c1 (stereo not given) | inactive: 1.55%

Row | SMILES | growth rescue (activation)
25 | Cc1ccc(NC(=O)c2cccc(C(=O)Nc3ccc(C)cc3C(=O)O)c2)c(C(=O)O)c1 | inactive: -1.05%
26 | O=C(O)/C=C/C(=O)NCCNc1ncc(C(F)(F)F)cc1Cl | inactive: -19%
27 | C=CCc1cccc2cc(C(=O)N3CCN(c4ccccn4)CC3)c(=O)oc12 | inactive: 6.94%
28 | COc1ccc(C(=O)COC(=O)CNC(=O)c2cccc(OC(F)F)c2)cc1 | inactive: 21.5%
29 | CCC(CC)NC(=O)CC(c1ccccc1)c1ccccc1 | inactive: -22.5%
30 | CCn1c(SCC(=O)NCc2ccc3c(c2)OCO3)nnc1-c1ccco1 | inactive: -6.31%
31 | O=C(N/N=C/c1ccc(-c2ccccc2)o1)c1ccccc1O | inactive: 6.14%
32 | O=C(O)C(Cc1c[nH]c2ccccc12)NS(=O)(=O)c1ccccc1 (stereo not given) | inactive: 9.01%
33 | COc1ccc(OC)c2c1cc(C(=O)N[C@@H](Cc1ccccc1)C(=O)O)n2C | inactive: -1.49%
34 | Cc1cc(S(=O)(=O)Nc2ccc3c(c2)n(C)c(=O)n3C)ccc1F | inactive: -7.17%
35 | COCCNC(=O)c1c(N)n(-c2cccc(C)c2)c2nc3ccccc3nc12 | inactive: 39.3%
36 | O=C(CSc1nc(O)c(C(c2ccccc2)c2ccccc2)c(=O)[nH]1)N1CCOCC1 | inactive: -3.39%
37 | CC1(C)OC(=O)C(=C2CCCN2)C(=O)O1 | inactive: -8.71%
38 | O=C(O)CNC(=O)C(c1ccccc1)c1ccccc1 | inactive: -10.1%
39 | O=C(NCc1ccco1)c1cc(Cl)nc(Cl)c1 | inactive: 15.4%
40 | COc1ccccc1N1CCN(C(=O)C2CC=CCC2C(=O)O)CC1 (stereo not given) | inactive: -10.8%
41 | O=C(CC1C(=O)NCCN1Cc1ccc(F)c(F)c1)NCCCn1ccnc1 (stereo not given) | inactive: 2.38%
42 | COc1ccc(/C=C2/C(=O)N(c3ccccc3)N=C2C)cc1OC | inactive: -2.3%
43 | CC(C)CC(=O)NC1(C(F)(F)F)C(=O)N(CC(C)C)C2=C1C(=O)CC(C)(C)C2 (stereo not given) | inactive: 26.4%
44 | O=C(O)CCc1ccc(-c2cccs2)n1CCc1ccccc1 | inactive: 6.13%
45 | O=C(c1cc(Br)ccc1Cl)N1CCN(c2ncccn2)CC1 | inactive: 19.5%
46 | O=C1c2ccccc2NC(c2ccccc2)N1Cc1ccco1 (stereo not given) | inactive: -5.64%
47 | COc1ccc(/C=N/OC(=O)Nc2ccc(Cl)cc2)c(OC)c1 | inactive: 20.1%
48 | O=C(c1ccco1)N1CCN(C(=O)c2ccccc2OCc2ccccc2)CC1 | inactive: 9.23%

Row | SMILES | growth rescue (activation)
49 | COc1cc(OC)cc(N(C(=O)C2COc3ccccc3O2)C(C(=O)NC2CCCCC2)c2ccc(O)cc2)c1 (stereo not given) | inactive: -6.46%
50 | COC(=O)COc1ccc(-n2cnnn2)cc1 | inactive: -6.11%
51 | Cc1ccccc1NN1C(=O)C=CC1=O | inactive: -41%
52 | CN(C)Cc1c(-c2ccc(Cl)cc2)nc2ccccn12 | inactive: -4.15%
53 | C=CCNC(=O)NC(=O)Cn1c(=O)c2c(ncn2CC)n(Cc2ccccc2)c1=O | inactive: -9.26%
54 | CC(NC(=O)CSc1ncn[nH]1)c1ccc(Cl)cc1Cl (stereo not given) | inactive: -17.5%
55 | Cc1ccc(-c2noc(C3CCCN(C(=O)c4ccccc4Br)C3)n2)o1 (stereo not given) | inactive: 26.2%
56 | Cc1cccc(C)c1NC(=O)Cn1c(=O)c(N2CCCCC2)c(N)n(C)c1=O | inactive: -1.3%
57 | Cc1sc2nc(SCC(=O)O)[nH]c(=O)c2c1C | inactive: -1.13%
58 | CC(=O)N/C(=C/c1ccc2c(c1)OCO2)C(=O)Nc1ccccc1 | inactive: 10.3%
59 | O=C(Nc1ccc(F)cc1F)NC1CC(=O)N(Cc2ccccc2)C1 (stereo not given) | inactive: -11%
60 | CON(c1nc(Cl)nc(N(C)C)n1)S(=O)(=O)c1ccccc1Cl | inactive: 10.1%
61 | O=C1/C(=C/c2cccs2)N=C(c2cccs2)N1Nc1ccccc1 | inactive: -33.2%
62 | CCOC(=O)c1cc(-c2ccc(OC(F)F)cc2)nc2nc(SC)[nH]c(=O)c12 | inactive: 12.3%
63 | Cc1nc2ccccc2n1C1CCN(CC(=O)Nc2ccccc2Br)CC1 | inactive: 3.55%
64 | Cc1cccc(OCC(=O)NCCCNC(=O)c2cnccn2)c1 | inactive: -29.6%
65 | COCCn1c(SCC(=O)Nc2ccc3[nH]c(=O)[nH]c3c2)nc2ccccc2c1=O | inactive: 23.2%
66 | Cc1ccc(CN2CCN(Cc3nc4c(s3)CCCC4)CC2CCO)cc1 (stereo not given) | inactive: -0.164%
67 | Cc1cc(NC(=O)CSc2nc3c(C)cccc3cc2C)no1 | inactive: 5.55%
68 | CC1(C(=O)NS(=O)(=O)c2cccs2)CCN1C(=O)C1CCCCC1 (stereo not given) | inactive: -12.7%
69 | CC(C)CNC(=O)c1cccc(NC(=O)COc2cccc([N+](=O)[O-])c2)c1 | inactive: 6.28%
70 | COc1ccc(C(=O)C2CCN(C(=S)NCCc3ccc(OC)c(OC)c3)CC2)cc1 | inactive: 5.78%
